From PubChem BioAssay AID463173 (ICCB-Longwood Screening Facility, Harvard Medical School, 2010) come the findings set out here.

The whole screen tested about 52,000 compounds, of which about 1,700 (3.3%) were called active. Rule as the data show it: active = survival mostly below about 52% (no sharp cut-off); inactive = mostly above about 56%. The list shows a part of the results.

The subject of this test is Wild type. The test is described as follows: growth inhibition of S. aureus wild type versus tarO mutant, primary screen, teichoic acid synthesis inhibitors, RN4220, OD600 (AID 463173). Conditions: S. aureus RN4220 wild type/DeltatarO growth, OD600, 18 h, active compounds read low, screened at 18.75 µg/mL (by protocol).
For `CC(C)(C)n1cnc2cc(NCc3ccccc3Cl)ccc21`, the survival was active: 8%.
Next, `COc1ccc(NC(=O)C2CCCN2S(=O)(=O)c2cccc3cccnc23)cc1OC` (stereo not given): inactive: 78%; `CN(C)c1ccc(CNC(=O)C2CCN(S(=O)(=O)c3ccc4c(ccn4C)c3)CC2)cc1`: inactive: 76%.
Consider `Cc1ccc(C)c(Nc2nn3c(=O)c4ccc(C(=O)NCCc5ccccc5)cc4nc3s2)c1`, for which the survival is inactive: 84%.
Take `CCOC(=O)c1ccc(NC(=O)C(CC)Sc2nc3ncccc3o2)cc1` (stereo not given): the survival was inactive: 55%.
For `Cc1ccc(N2CCN(C(=O)c3c4c(nc5ccccc35)C(=O)N(C3CCCCC3)C4)CC2)c(C)c1`, the survival is inactive: 73%.
Next, `Cc1n[nH]c(C)c1S(=O)(=O)N1CCCC(C(=O)Nc2ccc(Cl)cc2)C1` (stereo not given): inactive: 119%; `CCN(C(=O)Cn1cc(S(=O)(=O)Cc2ccccc2Cl)c2ccccc21)c1ccccc1`: inactive: 68%; `Cc1ccc(C)c(N2CCN(C(=O)Cn3c(-c4cccs4)cc4ccccc43)CC2)c1`: inactive: 74%.
Next, `COCCCn1c(SCC(=O)NCc2ccccc2)nc2c(sc3ccccc32)c1=O`: inactive: 72%.
For `COc1ccc(C(=O)Nc2nc3c(s2)CCc2cc(OC)ccc2-3)cc1` the value was inactive: 41%.
Turning to `CCCCNc1nc(Oc2ccc(OCC(N)=O)nn2)nc(N2CCOCC2)n1`, the survival was inactive: 118%.
Next, `Cc1ccc(-n2ncc3c(N4CCN(CCO)CC4)ncnc32)cc1Cl`: inactive: 73%; `Cc1ccc(-c2cc(C(=O)NCc3cnn(C)c3)c3cc(Br)ccc3n2)cc1`: inactive: 85%.
For the compound `Cc1ccc(S(=O)(=O)c2c(F)c(F)c(S(=O)(=O)c3ccc(C)cc3)c(F)c2F)cc1`, the survival was inactive: 110%.
Take `Cc1ccc(-n2c(SCC(=O)Nc3ccc4c(c3)OCO4)nc3c([nH]c4ccccc43)c2=O)cc1`: the survival is inactive: 121%.
Next, `CCOc1cc(C2c3c(oc4ccc(F)cc4c3=O)C(=O)N2Cc2ccco2)ccc1O` (stereo not given): inactive: 99%.
For `Cc1cc(Br)ccc1NC(=O)c1cn(C2CCCC2)c(=O)c2c1c1ccccc1n2C`, the survival was inactive: 79%.
`Cc1ccc(Cc2nc3ccccc3nc2SCC(=O)NCc2ccc(F)cc2)cc1`: the survival was inactive: 71%.
`Cc1cccc(C(=O)N2CCc3cc(CNC(=O)Cc4ccc(F)cc4)ccc32)c1`: the survival is inactive: 64%.
Take `CCc1ccccc1N(C)C(=O)c1cnc(N2CCOCC2)c2ccccc12`: the survival is inactive: 65%.
Take `CCC(=O)C1=C(c2cccc([N+](=O)[O-])c2)N(C(=O)CC)n2c(nnc2-c2ccccc2)S1`: the survival is active: 0%.
Next, `CCNc1nc(Cl)nc(N(C)C#N)n1`: inactive: 87%; `COc1ccc(CCNc2ncnc3c2c(-c2ccccc2)cn3-c2ccc(F)cc2)cc1OC`: inactive: 58%.
For the compound `COc1ccc(CCNC(=O)Cn2c(=O)n(-c3cc(OC)c(OC)c(OC)c3)c(=O)c3ccccc32)cc1OC`, the survival is inactive: 67%.
With `COc1cccc(CNc2nc3c(-c4ccccc4)nnn3c3ccccc23)c1`, the survival is inactive: 141%.
Consider `Cc1ccc2oc(=O)c3cnn(CC(=O)N4CCN(c5cc(Cl)ccc5C)CC4)c3c2c1`, for which the survival was inactive: 83%.
For `CCOc1ccc(NC(=O)c2cc(S(=O)(=O)N3CCCCC3)c[nH]2)cc1` the value was inactive: 111%; for `CN(C)c1ccc(C(CC(=O)O)NC(=O)c2ccc(Cl)cc2)cc1` (stereo not given), inactive: 93%.
With `CCOc1ccc(CCNCc2c(C(=O)O)n(Cc3ccc(C)cc3)c3cc(OC)ccc23)cc1`, the survival was inactive: 48%.
For `COc1cccc(NS(=O)(=O)c2ccc3[nH]cc(C(=O)NCCc4ccccc4)c(=O)c3c2)c1` the value was inactive: 85%; for `O=c1[nH]c(-c2ccc(S(=O)(=O)N3CCCC3)cc2)nc2sc3c(c12)CCCC3`, inactive: 115%.
On to `CN(Cc1ccccc1)C(=O)CSc1nc2ccsc2c(=O)n1-c1ccc(F)cc1`, for which the survival was inactive: 120%.
For `COc1cccc(N2C(=O)N(Cc3ccc(C#N)cc3)c3ccccc3S2(=O)=O)c1`, the survival is inactive: 67%.
For `CCn1cc(C(=O)NCCCN(CC(C)C)CC(C)C)c(=O)c2cc(S(=O)(=O)N(C)C3CCCCC3)ccc21` the value was inactive: 86%; for `COc1ccc(NC(=O)CCc2nnc3n(C)c(=O)c4sccc4n23)cc1Cl`, inactive: 70%.
In the case of `CCc1ccccc1NC(=O)Cn1c(=O)n(CC2CCC(C(=O)NCCc3ccccc3)CC2)c(=O)c2ccccc21` (stereo not given), the survival was inactive: 85%.
Next, `O=S(=O)(c1ccccc1F)N1CCC(Oc2ccc(-n3cnnn3)cc2)CC1`: inactive: 79%; `O=C(NCc1ccccc1Cl)c1cnc2sc(N3CCOCC3)nn2c1=O`: inactive: 70%; `CCC(=O)N1CCc2cc(Br)cc(S(=O)(=O)CCC(=O)Nc3ccc(C)c(C)c3)c21`: inactive: 47%.
Next, `COc1ccc(-c2noc(-c3ccc(NCc4cccnc4)c([N+](=O)[O-])c3)n2)cc1`: inactive: 89%; `COc1ccc(C2=NS(=O)(=O)N(C)C(C(=O)NCc3ccccc3)=C2)cc1OC`: inactive: 102%.
Next, `Cc1ccc(S(=O)(=O)c2nc(-c3ccccc3Cl)oc2N2CCCCCC2)cc1`: inactive: 20%; `COc1ccc(-c2cc(C(=O)Nc3ccn(Cc4ccc(C)cc4)n3)no2)cc1OC`: inactive: 83%; `CCc1ccc(NC(=O)C(=O)NCC(c2ccc3c(c2)OCO3)N2CCOCC2)cc1` (stereo not given): inactive: 77%.
For the compound `Cc1ccc(Cl)c(NC(=O)Nc2csc3c2CCCC3)c1`, the survival was inactive: 84%.
Next, `CCS(=O)(=O)N1CCC(n2c(C)nc3cccnc32)CC1`: inactive: 63%.
Next, `COc1cc2oc(=O)c(CC(=O)N3CCCCC3)c(C)c2cc1OC`: inactive: 87%; `CN1C(=O)c2ccccc2Sc2ccc(NC(=O)COc3ccccc3)cc21`: inactive: 83%; `Cc1ccccc1OCc1nnc(SCC(=O)N(C)C)n1-c1ccccc1`: inactive: 109%.
On to `CCOC(=O)c1nc(N2CCN(c3ccc(F)cc3)CC2)c2c(C)noc2n1`, for which the survival was active: 14%.
For `COc1ccc(C(=O)/C=C/c2cn(CC(O)CN(CC(C)C)CC(C)C)c3ccccc23)cc1` (stereo not given) the value was inactive: 44%; for `C=CCNC(=O)CSc1ccc(C)cc1`, inactive: 107%; for `COc1cccc(C(=O)Nc2ccc(-c3nc4ccccc4s3)cc2Cl)c1`, inactive: 68%.
For `CCn1c(=O)n(-c2ccc(F)c(Cl)c2)c(=O)c2c3c(sc21)CN(C(C)=O)CC3` the value was inactive: 125%.
